In the supplement of paper PMC4604168 (melanoma cell lines):
The other results are listed elsewhere or left out. Repeats are few or missing, and single values can be far off.

Columns and labels:
Assay in all cases: cell count relative to DMSO control; melanoma cells; higher = more viable cells
Settings in all cases: library dose: standard library concentration; 72 h
G361 = tested on: G361
IPC-298 = tested on: IPC-298
IST-MEL1 = tested on: IST-MEL1
LB2518-MEL = tested on: LB2518-MEL
LOXIMVI = tested on: LOXIMVI
MEL-HO = tested on: MEL-HO
MZ2-MEL = tested on: MZ2-MEL
MeWo = tested on: MeWo
RPMI7951 = tested on: RPMI7951
RVH-421 = tested on: RVH-421
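Further: cells treated in 1,536-well plates, then fixed and DAPI-stained, with nuclei counted from automated high-throughput microscope images.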

Compound	cell count (G361) [%]	cell count (IPC-298) [%]	cell count (IST-MEL1) [%]	cell count (LB2518-MEL) [%]	cell count (LOXIMVI) [%]	cell count (MEL-HO) [%]	cell count (MZ2-MEL) [%]	cell count (MeWo) [%]	cell count (RPMI7951) [%]	cell count (RVH-421) [%]
O=C(O)c1ccc(-c2c[nH]c3ncc(-c4ccccc4)cc23)cc1C1CCCC1 + CCc1ccc(CCOc2ccc(CC3SC(=O)NC3=O)cc2)nc1 [pioglitazone] (first compound 0.8 µM, partner dose 10 µM)	55.1	76.4	72.2	91.3	99.4	75.6	72.1	97.7	99	91.3
Cn1cncc1[C@@](N)(c1ccc(Cl)cc1)c1ccc2c(c1)c(-c1cccc(Cl)c1)cc(=O)n2C [tipifarnib] + COc1ccc2c(c1)CCC1C2CCC2(C)C(NCCCCCCN3C(=O)C=CC3=O)CCC12 [U73122] (first compound 0.05 µM, partner dose 2 µM)	70.9	84.8	80	78.5	86.3	91.6	90.9	67.1	15.8	90.2
O=c1[nH]nc(Sc2ncc([N+](=O)[O-])s2)n1-c1ccc2c(c1)OCCO2 + CN(NC(=O)CC(=O)NN(C)C(=S)c1ccccc1)C(=S)c1ccccc1 [STA4783] (first compound 1 µM, partner dose 0.03 µM)	44.4	68.6	84.3	20.8	86.8	75.2	110	11.5	60.7	31.8
O=c1[nH]nc(Sc2ncc([N+](=O)[O-])s2)n1-c1ccc2c(c1)OCCO2 + N#Cc1c(O)c2c(-c3ccc(-c4ccccc4O)cc3)csc2[nH]c1=O [A769662] (first compound 1 µM, partner dose 10 µM)	118	71.9	97.7	105	91.8	93.3	103	97.4	90.9	93.3
O=c1[nH]nc(Sc2ncc([N+](=O)[O-])s2)n1-c1ccc2c(c1)OCCO2 + COc1cc2c(Oc3ccc4[nH]c(C)cc4c3F)ncnc2cc1OCCCN1CCCC1 [cediranib] (first compound 1 µM, partner dose 2 µM)	89.8	136	79.3	98.2	80.8	115	115	104	66	86.6
COc1cc(Nc2ncc(F)c(Nc3ccc4c(n3)NC(=O)C(C)(C)O4)n2)cc(OC)c1OC [Tamatinib] + CN(NC(=O)CC(=O)NN(C)C(=S)c1ccccc1)C(=S)c1ccccc1 [STA4783] (first compound 2 µM, partner dose 0.03 µM)	22.2	39.2	11.3	10.6	23.7	62.9	75.8	10.5	40.8	44.9
O=c1[nH]nc(Sc2ncc([N+](=O)[O-])s2)n1-c1ccc2c(c1)OCCO2 + C[C@@H](N)c1ccc(C(=O)Nc2ccnc3[nH]ccc23)cc1 [RKI983] (first compound 1 µM, partner dose 2 µM)	93.8	99.2	78.7	96.3	113	65.1	61.8	75.6	56.6	54.1
O=c1[nH]nc(Sc2ncc([N+](=O)[O-])s2)n1-c1ccc2c(c1)OCCO2 + COc1ccc(C2=N[C@@H](c3ccc(Cl)cc3)[C@@H](c3ccc(Cl)cc3)N2C(=O)N2CCNC(=O)C2)c(OC(C)C)c1 [Nutlin-3] (first compound 1 µM, partner dose 0.5 µM)	82.3	99.5	85.2	70.7	71.7	111	107	106	136	181
CC1(C)NC(=O)N(c2ccc([N+](=O)[O-])c(C(F)(F)F)c2)C1=O [nilutamide] + Oc1cc(-c2nc(-c3ccccc3)[nH]c2-c2ccncc2)ccc1Cl [L779450] (first compound 5 µM, partner dose 1 µM)	52.5	89	93.1	85.4	99.4	87	91.7	93.6	74.4	75.9
Cn1cncc1[C@@](N)(c1ccc(Cl)cc1)c1ccc2c(c1)c(-c1cccc(Cl)c1)cc(=O)n2C [tipifarnib] + Oc1nc(-c2ccc(C(F)(F)F)cc2)nc2c1CSCC2 [XAV939] (first compound 0.05 µM, partner dose 10 µM)	82.5	81	89.2	85.1	88.1	90.6	95.1	90.5	67.5	79.2
CC1(C)NC(=O)N(c2ccc([N+](=O)[O-])c(C(F)(F)F)c2)C1=O [nilutamide] + O=C1NC(=O)/C(=C/c2ccc(-c3ccc(F)cc3O)o2)S1 [AS252424] (first compound 5 µM, partner dose 5 µM)	92.5	85.3	97.2	93.5	102	85.1	83.5	85.3	112	94.8
COc1cc(Nc2ncc(F)c(Nc3ccc4c(n3)NC(=O)C(C)(C)O4)n2)cc(OC)c1OC [Tamatinib] + CO[C@@H]1[C@H](N(C)C(=O)c2ccccc2)C[C@H]2O[C@]1(C)n1c3ccccc3c3c4c(c5c6ccccc6n2c5c31)C(=O)NC4 [Midostaurin] (first compound 2 µM, partner dose 0.4 µM)	47.8	43	25.7	38.4	15	45.1	37.3	47.7	8.39	53.6
O=c1[nH]nc(Sc2ncc([N+](=O)[O-])s2)n1-c1ccc2c(c1)OCCO2 + Cc1cc(Nc2cc(N3CCN(C)CC3)nc(/C=C/c3ccccc3)n2)n[nH]1 [ENMD2076] (first compound 1 µM, partner dose 0.2 µM)	89.2	93.8	93.9	78.3	90.4	98.9	92.2	95.1	78.5	88.7
O=C(Nc1cccc(Cl)c1)Nc1ncc(CCNc2ncnc3ccsc23)s1 + CCc1ccc(CCOc2ccc(CC3SC(=O)NC3=O)cc2)nc1 [pioglitazone] (first compound 0.004 µM, partner dose 10 µM)	64.8	61.3	59.7	75.1	78.1	75.5	72.5	76.3	63.1	68.6
O=c1[nH]nc(Sc2ncc([N+](=O)[O-])s2)n1-c1ccc2c(c1)OCCO2 + Nc1nc(F)nc2c1ncn2[C@@H]1O[C@H](CO)[C@@H](O)[C@@H]1O [fludarabine] (first compound 1 µM, partner dose 1 µM)	80.4	83	78.2		84.7	91.2		90.3	75.9	93.5
O=c1[nH]nc(Sc2ncc([N+](=O)[O-])s2)n1-c1ccc2c(c1)OCCO2 + CS(=O)(=O)c1ccc(C(=O)Nc2ccc(Cl)c(-c3ccccn3)c2)c(Cl)c1 [vismodegib] (first compound 1 µM, partner dose 5 µM)	92.5	88.3	104		113	87.4		107	118	274
CC1(C)NC(=O)N(c2ccc([N+](=O)[O-])c(C(F)(F)F)c2)C1=O [nilutamide] + CO[C@@H]1[C@H](N(C)C(=O)c2ccccc2)C[C@H]2O[C@]1(C)n1c3ccccc3c3c4c(c5c6ccccc6n2c5c31)C(=O)NC4 [Midostaurin] (first compound 5 µM, partner dose 0.4 µM)	55.7	86.7	79.9		39.7	79.6		76.2	37.9	74.7
Cn1cncc1[C@@](N)(c1ccc(Cl)cc1)c1ccc2c(c1)c(-c1cccc(Cl)c1)cc(=O)n2C [tipifarnib] + O=c1cc(-c2cccc3c2Sc2ccccc2S3)oc(N2CCOCC2)c1 [KU55933] (first compound 0.05 µM, partner dose 5 µM)	74.3	85.9	87.5	71.2	92.1	85.9	85.3	82	71.2	82.6
C[C@@H]1CCN(C(=O)CC#N)C[C@@H]1N(C)c1ncnc2[nH]ccc12 + CCN(CC)CCCCNc1ncc2cc(-c3cc(OC)cc(OC)c3)c(NC(=O)NC(C)(C)C)nc2n1 [PD173074] (first compound 5 µM, partner dose 0.5 µM)	102	101	107	88	78.6	113	98.7	101	79.5	93.9
O=c1[nH]nc(Sc2ncc([N+](=O)[O-])s2)n1-c1ccc2c(c1)OCCO2 + Clc1ccc(Nc2nnc(Cc3ccncc3)c3ccccc23)cc1 [vatalanib] (first compound 1 µM, partner dose 10 µM)	73.5	62	78.3	77.6	63.1	67.8	72.4	66.1	66.1	55.9
C[C@@H]1CCN(C(=O)CC#N)C[C@@H]1N(C)c1ncnc2[nH]ccc12 + O=C1NC(=O)/C(=C/c2ccc(-c3ccc(F)cc3O)o2)S1 [AS252424] (first compound 5 µM, partner dose 5 µM)	73.1	94.4	88.2	95.9	91.6	71.3	86.9	82.5	82.6	102
C[C@@H]1CCN(C(=O)CC#N)C[C@@H]1N(C)c1ncnc2[nH]ccc12 + Oc1cc(-c2nc(-c3ccccc3)[nH]c2-c2ccncc2)ccc1Cl [L779450] (first compound 5 µM, partner dose 1 µM)	58.1	89.2	83.8	98	87.5	85.5	102	69.2	83.8	76.4
Cn1cncc1[C@@](N)(c1ccc(Cl)cc1)c1ccc2c(c1)c(-c1cccc(Cl)c1)cc(=O)n2C [tipifarnib] + Cc1cc([N+](=O)[O-])ccc1NS(=O)(=O)c1cc(Cl)ccc1Cl [FH535] (first compound 0.05 µM, partner dose 5 µM)	46.3	51.4	61.6	76.3	90.9	56.1	68.4	77.3	78.5	92.1
CC1(C)NC(=O)N(c2ccc([N+](=O)[O-])c(C(F)(F)F)c2)C1=O [nilutamide] + COc1ccc(-c2ccc3c(N4CCOCC4)nc(N4C[C@@H](C)O[C@@H](C)C4)nc3n2)cc1CO [KU0063794] (first compound 5 µM, partner dose 0.1 µM)	99	96.5	117	114	87.3	101	100	90.4	124	113
O=c1[nH]nc(Sc2ncc([N+](=O)[O-])s2)n1-c1ccc2c(c1)OCCO2 + CN(C)S(=O)(=O)c1ccc2c(c1)/C(=C/c1cc3c([nH]1)CCCC3)C(=O)N2 [SU6656] (first compound 1 µM, partner dose 2 µM)	58.7	71.8	69	71.7	107	82.4	93.3	69.1	53.6	67.4
O=c1[nH]nc(Sc2ncc([N+](=O)[O-])s2)n1-c1ccc2c(c1)OCCO2 + OCc1c[nH]c2ccccc12 [Indole-3-carbinol] (first compound 1 µM, partner dose 4 µM)	89.5	94.3	98.5		95.7	102		101	101	92.5
O=C(Nc1cccc(Cl)c1)Nc1ncc(CCNc2ncnc3ccsc23)s1 + CN(NC(=O)CC(=O)NN(C)C(=S)c1ccccc1)C(=S)c1ccccc1 [STA4783] (first compound 0.004 µM, partner dose 0.03 µM)	37.3	53.5	25.9		45.3	52.6		16.8	49.2	57.3
COc1cc(Nc2ncc(F)c(Nc3ccc4c(n3)NC(=O)C(C)(C)O4)n2)cc(OC)c1OC [Tamatinib] + C=CCn1c(=O)c2cnc(Nc3ccc(N4CCN(C)CC4)cc3)nc2n1-c1cccc(C(C)(C)O)n1 [MK1775] (first compound 2 µM, partner dose 0.1 µM)	72.2	74.3		82.4	25.9	62.9	81.6	67.1	34	88.7
O=c1[nH]nc(Sc2ncc([N+](=O)[O-])s2)n1-c1ccc2c(c1)OCCO2 + C[C@@H]1CCN(C(=O)CC#N)C[C@@H]1N(C)c1ncnc2[nH]ccc12 [CP690550] (first compound 1 µM, partner dose 5 µM)	88.1	97	85.5	89.9	108	102	106	81.3	76.6	84.2
